According to a collection of fitness landscapes (doi:10.1126/science.1257360):
This is one part of the list.

B1: PhoQ; a variant is named by its letters at X, in order, P23837 (parent)
chain: MKKLLRLFFPLSLRVRFLLATAAVVLVLSLAYGMVALIGYSVSFDKTTFRLLRGESNLFYTLAKWENNKLHVELPENIDKQSPTMTLIYDENGQLLWAQRDVPWLMKMIQPDWLKSNGFHEIEADVNDTSLLLSGDHSIQQQLQEVREDDDDAEMTHSVAVNVYPATSRMPKLTIVVVDTIPVELKSSYMVWSWFIYVLSANLLLVIPLLWVAAWWSLRPIEALAKEVRELEEHNRELLNPATTRELTSLVRNLNRLLKSERERYDKYRTTLTDLTHSLKTPLXXLQXXLRSLRSEKMSVSDAEPVMLEQISRISQQIGYYLHRASMRGGTLLSRELHPVAPLLDNLTSALNKVYQRKGVNISLDISPEISFVGEQNDFVEVMGNVLDNACKYCLEFVEISARQTDEHLYIVVEDDGPGIPLSKREVIFDRGQRVDTLRPGQGVGLAVAREITEQYEGKIVAGESMLGGARMEVIFGRQHSAPKDE

Variants of: B1
Experiment: enrichment ratio after two sorts for PhoP signalling (ratio (wild type AVST 3.29)); higher = more functional
Conditions: with PhoP (E. coli)

Row | Variant | enrichment ratio
1 | VLGS | ≤ 0.25
2 | GFWK | ≤ 0.25
3 | VYWA | ≤ 0.25
4 | MNVW | ≤ 0.25
5 | AMTA | 7.86
6 | NIFL | ≤ 0.25
7 | HARI | ≤ 0.25
8 | MYWQ | ≤ 0.25
9 | QYLC | ≤ 0.25
10 | NTFD | ≤ 0.25
11 | TCRG | ≤ 0.25
12 | HKAC | ≤ 0.25
13 | NKPE | ≤ 0.25
14 | LPQV | ≤ 0.25
15 | KILM | ≤ 0.25
16 | HRTA | ≤ 0.25
17 | FCGR | ≤ 0.25
18 | FDAL | ≤ 0.25
19 | VFWF | ≤ 0.25
20 | HQFS | ≤ 0.25
21 | FASI | ≤ 0.25
22 | MPIR | ≤ 0.25
23 | TRFM | ≤ 0.25
24 | WRCT | ≤ 0.25
25 | QILA | ≤ 0.25

Row | Variant | enrichment ratio
26 | QQLQ | ≤ 0.25
27 | KLIR | ≤ 0.25
28 | LNDE | ≤ 0.25
29 | PGVE | ≤ 0.25
30 | RWNN | ≤ 0.25
31 | MNVF | ≤ 0.25
32 | EDQV | ≤ 0.25
33 | VPPS | ≤ 0.25
34 | HTDW | ≤ 0.25
35 | ETEL | ≤ 0.25
36 | RALK | ≤ 0.25
37 | QQVR | ≤ 0.25
38 | DDCL | ≤ 0.25
39 | GMVW | ≤ 0.25
40 | MKMY | ≤ 0.25
41 | ETTL | ≤ 0.25
42 | KCFY | ≤ 0.25
43 | RTLT | ≤ 0.25
44 | WEMC | ≤ 0.25
45 | PTMY | ≤ 0.25
46 | WKHG | ≤ 0.25
47 | DPEL | ≤ 0.25
48 | WSTE | ≤ 0.25
49 | FHEN | ≤ 0.25
50 | YQMN | ≤ 0.25

Row | Variant | enrichment ratio
51 | VWHQ | ≤ 0.25
52 | MIGV | 1.71
53 | PNIK | ≤ 0.25
54 | HRWP | ≤ 0.25
55 | STNV | 0.624
56 | EMSN | ≤ 0.25
57 | IRTQ | ≤ 0.25
58 | MKYF | ≤ 0.25
59 | TELK | 8.68
60 | QVVY | ≤ 0.25
61 | PVIA | ≤ 0.25
62 | TLER | ≤ 0.25
63 | AWTH | ≤ 0.25
64 | TKMI | 38.2
65 | MGNG | ≤ 0.25
66 | TFFY | ≤ 0.25
67 | LGAT | ≤ 0.25
68 | MSLM | 15.9
69 | NEIS | ≤ 0.25
70 | EVLI | ≤ 0.25
71 | NRRD | ≤ 0.25
72 | HHYH | ≤ 0.25
73 | KTNS | ≤ 0.25
74 | RRPR | ≤ 0.25
75 | ICSS | ≤ 0.25

Row | Variant | enrichment ratio
76 | VLMD | ≤ 0.25
77 | GSIW | ≤ 0.25
78 | YQYV | ≤ 0.25
79 | WYKH | ≤ 0.25
80 | CYHS | ≤ 0.25
81 | NGFG | ≤ 0.25
82 | SCWY | ≤ 0.25
83 | PIPE | ≤ 0.25
84 | PPQV | ≤ 0.25
85 | KFGE | ≤ 0.25
86 | MTSV | 0.634
87 | TEVG | 10.9
88 | RNEP | ≤ 0.25
89 | RASY | ≤ 0.25
90 | QFDI | ≤ 0.25
91 | FFIE | ≤ 0.25
92 | TRMR | ≤ 0.25
93 | DDLF | ≤ 0.25
94 | VNFM | ≤ 0.25
95 | HCSV | ≤ 0.25
96 | LMWD | ≤ 0.25
97 | RMIA | ≤ 0.25
98 | VIFA | ≤ 0.25
99 | GQRR | ≤ 0.25
100 | WVVF | ≤ 0.25

Row | Variant | enrichment ratio
101 | RDIW | ≤ 0.25
102 | NTYS | ≤ 0.25
103 | ICQC | ≤ 0.25
104 | AQGA | ≤ 0.25
105 | IMSC | ≤ 0.25
106 | GYKN | ≤ 0.25
107 | MRRV | ≤ 0.25
108 | TMMW | ≤ 0.25
109 | IYAM | ≤ 0.25
110 | HAKH | ≤ 0.25
111 | YWWY | ≤ 0.25
112 | MFGN | ≤ 0.25
113 | DDQI | ≤ 0.25
114 | PNYK | ≤ 0.25
115 | RVPY | ≤ 0.25
116 | SVMI | 4.6
117 | TCRS | ≤ 0.25
118 | RYGW | ≤ 0.25
119 | TEPE | ≤ 0.25
120 | KKLS | ≤ 0.25
121 | NRRI | ≤ 0.25
122 | QRDA | ≤ 0.25
123 | NYYY | ≤ 0.25
124 | NLST | ≤ 0.25
125 | NMYD | ≤ 0.25

Row | Variant | enrichment ratio
126 | SWCK | ≤ 0.25
127 | NKGY | 3.33
128 | FTCF | 3.06
129 | KFPG | ≤ 0.25
130 | GQSQ | ≤ 0.25
131 | YFPL | ≤ 0.25
132 | TRCS | 5.35
133 | APQW | ≤ 0.25
134 | NCNK | ≤ 0.25
135 | VSCA | ≤ 0.25
136 | WISH | ≤ 0.25
137 | EREP | ≤ 0.25
138 | LPWP | ≤ 0.25
139 | ETQH | ≤ 0.25
140 | KMCL | ≤ 0.25
141 | PESF | ≤ 0.25
142 | TLCV | 1.7
143 | HQLA | ≤ 0.25
144 | KGII | ≤ 0.25
145 | TIAD | ≤ 0.25
146 | GMHV | ≤ 0.25
147 | KTTY | ≤ 0.25
148 | GFLA | ≤ 0.25
149 | WNFY | ≤ 0.25
150 | TAWM | 9.41

Row | Variant | enrichment ratio
151 | PKWA | ≤ 0.25
152 | VWRI | ≤ 0.25
153 | IEVK | ≤ 0.25
154 | EGRS | ≤ 0.25
155 | QGLK | 1.02
156 | EKSI | ≤ 0.25
157 | YAMC | ≤ 0.25
158 | YDLW | ≤ 0.25
159 | EPPV | ≤ 0.25
160 | REDK | ≤ 0.25
161 | NSLT | ≤ 0.25
162 | QECC | ≤ 0.25
163 | FKAL | ≤ 0.25
164 | KVFK | ≤ 0.25
165 | RSVW | ≤ 0.25
166 | GDTN | ≤ 0.25
167 | TGFV | 2.07
168 | KNNT | ≤ 0.25
169 | NEKM | ≤ 0.25
170 | VQVA | ≤ 0.25
171 | YSFM | ≤ 0.25
172 | YPGP | ≤ 0.25
173 | SITF | 11.8
174 | VCSE | ≤ 0.25
175 | PVWI | ≤ 0.25

Row | Variant | enrichment ratio
176 | MELN | ≤ 0.25
177 | GNSW | ≤ 0.25
178 | WVFS | ≤ 0.25
179 | NEQN | ≤ 0.25
180 | WFPG | ≤ 0.25
181 | IWGI | ≤ 0.25
182 | DDYH | ≤ 0.25
183 | IQYK | ≤ 0.25
184 | AEEG | ≤ 0.25
185 | PFDQ | ≤ 0.25
186 | IYVL | ≤ 0.25
187 | YPWQ | ≤ 0.25
188 | YHPW | ≤ 0.25
189 | KVES | ≤ 0.25
190 | AGVC | 3.46
191 | SYTT | ≤ 0.25
192 | FIPR | ≤ 0.25
193 | DFED | ≤ 0.25
194 | VAMC | ≤ 0.25
195 | MTLW | ≤ 0.25
